Measurements from US20250018038A1 (UNIVERSITY OF CHICAGO, published 2025).
Substitutions are numbered along the chain they refer to. No constants are given. Whether binding was seen depends on the method and setting. Some results given as binding are weak or reduced against the parent protein; the word gives no strength.

By UniProt entry, the sequences of proteins in these tests, tags left out. Residues count along the entry.
UniProt O15392, residues 1-140: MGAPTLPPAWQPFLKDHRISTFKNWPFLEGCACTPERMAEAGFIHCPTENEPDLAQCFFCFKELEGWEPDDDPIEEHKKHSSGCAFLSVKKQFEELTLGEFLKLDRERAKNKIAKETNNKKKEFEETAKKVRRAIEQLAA

T1: Bor-N (Biotinylated Avi tag, held on neutravidin; not in the letters)
T1 construct: also called Bor N: 20-88; Borealin N-terminal domain; not shown: Avi tag, and any purification tag or linker
T1 chain: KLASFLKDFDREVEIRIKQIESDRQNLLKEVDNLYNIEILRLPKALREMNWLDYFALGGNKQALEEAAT

T2: Bor-C (Biotinylated Avi tag, held on neutravidin; not in the letters)
T2 construct: also called Bor C: 207-280; Borealin C-terminal domain; not shown: Avi tag, and any purification tag or linker
T2 chain: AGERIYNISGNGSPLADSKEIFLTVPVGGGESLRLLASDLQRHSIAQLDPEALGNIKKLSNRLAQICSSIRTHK

B1: SUR-N-40 Fab (Fab, V domains shown)
VH: EVQLVESGGGLVQPGGSLRLSCAASGFNFSSSSIHWVRQAPGKGLEWVAYIYPSYGYTSYADSVKGRFTISADTSKNTAYLQMNSLRAEDTAVYYCARSLYSKMWYYGSYYFYQVGLDYWGQGTLVTVSS
VL: DIQMTQSPSSLSASVGDRVTITCRASQSVSSAVAWYQQKPGKAPKLLIYSASSLYSGVPSRFSGSRSGTDFTLTISSLQPEDFATYYCQQGYKYLVTFGQGTKVEIKR
B2: SUR-FL-47 (Fab, V domains shown)
VH: EVQLVESGGGLVQPGGSLRLSCAASGFNVSYSSIHWVRQAPGKGLEWVASIYSYYGYTSYADSVKGRFTISADTSKNTAYLQMNSLRAEDTAVYYCARWPHYWGQGVSSMDYWGQGTLVTVSS
VL: B1 VL with G91S, K93Y, Y94F, L95P
notes: also called SUR-FL-47 Fab
B3: SUR-FL-46 (Fab, V domains shown)
VH: EVQLVESGGGLVQPGGSLRLSCAASGFNFYSSYIHWVRQAPGKGLEWVAYISSYSGYTSYADSVKGRFTISADTSKNTAYLQMNSLRAEDTAVYYCARYSRVGMYPYGGLDYWGQGTLVTVSS
VL: DIQMTQSPSSLSASVGDRVTITCRASQSVSSAVAWYQQKPGKAPKLLIYSASSLYSGVPSRFSGSRSGTDFTLTISSLQPEDFATYYCQQSYYYSSLFTFGQGTKVEIKR
B4: SUR-FL-25 (Fab, V domains shown)
VH: EVQLVESGGGLVQPGGSLRLSCAASGFNVYSSSIHWVRQAPGKGLEWVASIYPYYSYTSYADSVKGRFTISADTSKNTAYLQMNSLRAEDTAVYYCARWKKSRSGGMWGMDYWGQGTLVTVSS
VL: B1 VL with G91Y, Y92S, K93S, Y94F, L95P, V96I
notes: also called SUR-FL-25 Fab
B5: SUR-FL-24 (Fab, V domains shown)
VH: EVQLVESGGGLVQPGGSLRLSCAASGFNFYSSSIHWVRQAPGKGLEWVASIYPYYSSTSYADSVKGRFTISADTSKNTAYLQMNSLRAEDTAVYYCARWYHYYSVQQYGLDYWGQGTLVTVSS
VL: B1 VL with G91S, Y92T, K93S, Y94F, L95P, V96I
notes: also called SUR-FL-24 Fab
B6: SUR-FL-29 Fab (Fab, V domains shown)
VH: EVQLVESGGGLVQPGGSLRLSCAASGFNVSYYSIHWVRQAPGKGLEWVASIYPYYGSTSYADSVKGRFTISADTSKNTAYLQMNSLRAEDTAVYYCARWQFYGYYHGLYFTDLGIDYWGQGTLVTVSS
VL: B1 VL with G91S, Y92G, K93G, Y94F, L95P, V96I
B7: SUR-FL-26 (Fab, V domains shown)
VH: EVQLVESGGGLVQPGGSLRLSCAASGFNVSYSSIHWVRQAPGKGLEWVASISPYYGYTYYADSVKGRFTISADTSKNTAYLQMNSLRAEDTAVYYCARWYFEYPYYMWGLDYWGQGTLVTVSS
VL: B1 VL with G91S, Y94P, L95P, V96I
notes: also called SUR-FL-26 Fab
B8: SUR-FL-22 (Fab, V domains shown)
VH: EVQLVESGGGLVQPGGSLRLSCAASGFNFYSSYIHWVRQAPGKGLEWVASIYSYSSSTSYADSVKGRFTISADTSKNTAYLQMNSLRAEDTAVYYCARAGWYWYYGIQFAFDYWGQGTLVTVSS
VL: DIQMTQSPSSLSASVGDRVTITCRASQSVSSAVAWYQQKPGKAPKLLIYSASSLYSGVPSRFSGSRSGTDFTLTISSLQPEDFATYYCQQQRYGSLITFGQGTKVEIKR
notes: also called SUR-FL-22 Fab
B9: SUR-N-36 Fab (Fab, V domains shown)
VH: EVQLVESGGGLVQPGGSLRLSCAASGFNVSYSSIHWVRQAPGKGLEWVASIYPYYGYTSYADSVKGRFTISADTSKNTAYLQMNSLRAEDTAVYYCAREEYSTVQYWYYYWYPGMDYWGQGTLVTVSS
VL: B1 VL with G91Y, Y92M, K93Y, Y94S, L95P, V96I
B10: SUR-N-09 (Fab, V domains shown)
VH: EVQLVESGGGLVQPGGSLRLSCAASGFNFYYSSIHWVRQAPGKGLEWVASISPYSGYTSYADSVKGRFTISADTSKNTAYLQMNSLRAEDTAVYYCARYMYYGWALDYWGQGTLVTVSS
VL: B8 VL with Q91G, R92Q, Y93W, G94W, S95G
notes: also called SUR-N-09 Fab
B11: SUR-N-53 (Fab, V domains shown)
VH: EVQLVESGGGLVQPGGSLRLSCAASGFNVSSSYIHWVRQAPGKGLEWVASIYSYYGSTSYADSVKGRFTISADTSKNTAYLQMNSLRAEDTAVYYCARSFTEKWAYSWAIDYWGQGTLVTVSS
VL: B1 VL with G91Y, Y92A, K93W, Y94S, V96F
notes: also called SUR-N-53 Fab
B12: SUR-FL-52 (Fab, V domains shown)
VH: EVQLVESGGGLVQPGGSLRLSCAASGFNFSSSSIHWVRQAPGKGLEWVASIYPYSGSTYYADSVKGRFTISADTSKNTAYLQMNSLRAEDTAVYYCARWDFGYYYWYSAIDYWGQGTLVTVSS
VL: B1 VL with G91Y, Y92W, K93Y, Y94T, V96I
notes: also called SUR-FL-52 Fab
B13: SUR-FL-42 (Fab, V domains shown)
VH: EVQLVESGGGLVQPGGSLRLSCAASGFNFSYYYIHWVRQAPGKGLEWVASISPSYSSTSYADSVKGRFTISADTSKNTAYLQMNSLRAEDTAVYYCARFAPGFGWWYMGMDYWGQGTLVTVSS
VL: B1 VL with G91Y, Y92I, K93P, Y94S, V96I
B14: SUR-FL-43 (Fab, V domains shown)
VH: EVQLVESGGGLVQPGGSLRLSCAASGFNISYSSIHWVRQAPGKGLEWVASISSSSGYTSYADSVKGRFTISADTSKNTAYLQMNSLRAEDTAVYYCARKWWYYYGRDLALDYWGQGTLVTVSS
VL: B8 VL with R92G, G94R, S95G
B15: SUR-N-28 (Fab, V domains shown)
VH: EVQLVESGGGLVQPGGSLRLSCAASGFNFSSSYIHWVRQAPGKGLEWVASIYSSYGYTSYADSVKGRFTISADTSKNTAYLQMNSLRAEDTAVYYCARSYYYQYSGGWRGYYHALDYWGQGTLVTVSS
VL: B1 VL with G91S, Y92S, K93S, Y94S, V96I
notes: also called SUR-N-28 Fab
B16: SUR-FL-31 (Fab, V domains shown)
VH: EVQLVESGGGLVQPGGSLRLSCAASGFNFSSSSIHWVRQAPGKGLEWVASISSYSGYTYYADSVKGRFTISADTSKNTAYLQMNSLRAEDTAVYYCARGKQKSYGQWYFYYWAIDYWGQGTLVTVSS
VL: B1 VL with G91S, Y92S, K93S, Y94S, V96I
notes: also called SUR-FL-31 Fab
B17: SUR-N-37 (Fab, V domains shown)
VH: EVQLVESGGGLVQPGGSLRLSCAASGFNVSYSSIHWVRQAPGKGLEWVASISSYYGSTSYADSVKGRFTISADTSKNTAYLQMNSLRAEDTAVYYCARSTYYSWYPYYYAMWHQHGMDYWGQGTLVTVSS
VL: B8 VL with Q91S, R92P, Y93M, G94Y
notes: also called SUR-N-37 Fab

Each binder was assayed against Survivin (purified recombinant Survivin protein) (human) (UniProt O15392) (assay: single point protein ELISA, hSUR + FAB against FAB only).

Row | Binder | binding
1 | B1 | binds

Molecular target: T1, Bor-N
Assay: single point protein ELISA, 50 nM immobilised target
Method: (§1) To rapidly reconfirm the binding and specificity of the obtained Fabs after reformatting into the expression vectors single-point Fab ELISA was performed (FIG. 2-3). Briefly, 50 nM Avi-tagged targets were immobilized on the prepared NAV-coated and blocked with 0.5% BSA in PBS 96-well ELISA plates. The target coated plates were washed with appropriate buffer (TBST or PBST) and were incubated with 200 nM Fab for 20 minutes and then washed. The washed plates were incubated with protein L conjugated with HRP (1:5000 diluted in TBST) for 30 minutes. Plates were washed and the reaction was developed using the TMB chromogenic substrate (Thermofisher) and subsequently quenched with 1M HCl. Absorbance was read at 450 nm on Epoch plate reader.

Row | Binder | binding
2 | B1 | no binding (tested: 200 nM)
3 | B2 | no binding (tested: 200 nM)
4 | B3 | no binding (tested: 200 nM)
5 | B4 | no binding (tested: 200 nM)
6 | B5 | no binding (tested: 200 nM)
7 | B6 | no binding (tested: 200 nM)
8 | B7 | no binding (tested: 200 nM)
9 | B8 | no binding (tested: 200 nM)
10 | B9 | no binding (tested: 200 nM)
11 | B10 | no binding (tested: 200 nM)
12 | B11 | no binding (tested: 200 nM)
13 | B12 | no binding (tested: 200 nM)
14 | B13 | no binding (tested: 200 nM)
15 | B14 | no binding (tested: 200 nM)

Molecular target: T2, Bor-C
Assay: as above
Method: as §1

Row | Binder | binding
16 | B2 | no binding (tested: 200 nM)
17 | B3 | no binding (tested: 200 nM)
18 | B15 | no binding (tested: 200 nM)
19 | B4 | no binding (tested: 200 nM)
20 | B16 | no binding (tested: 200 nM)
21 | B5 | no binding (tested: 200 nM)
22 | B6 | no binding (tested: 200 nM)
23 | B7 | no binding (tested: 200 nM)
24 | B8 | no binding (tested: 200 nM)
25 | B9 | no binding (tested: 200 nM)
26 | B13 | no binding (tested: 200 nM)
27 | B14 | no binding (tested: 200 nM)

Each binder was assayed on T3, INC-N in the same assay as above.
T3 sequence (chain, by the resolver, Biotinylated Avi tag, held on neutravidin; not in the letters): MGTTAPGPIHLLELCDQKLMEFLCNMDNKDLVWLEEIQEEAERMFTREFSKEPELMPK

Row | Binder | binding
28 | B2 | no binding (tested: 200 nM)
29 | B3 | no binding (tested: 200 nM)
30 | B15 | no binding (tested: 200 nM)
31 | B16 | no binding (tested: 200 nM)
32 | B5 | no binding (tested: 200 nM)
33 | B6 | no binding (tested: 200 nM)
34 | B7 | no binding (tested: 200 nM)

The binders below were run against Survivin (purified recombinant Survivin protein) (human) (UniProt O15392) (assay: single point protein ELISA: 50 nM Avi-tagged target on neutravidin plate, 200 nM Fab, protein L-HRP).

Row | Binder | binding
35 | B1 | binds
36 | B2 | binds
37 | B3 | binds
38 | B15 | binds
39 | B4 | binds
40 | B16 | binds
41 | B5 | binds
42 | B6 | binds
43 | B7 | binds
44 | B8 | binds
45 | B17 | binds
46 | B9 | binds
47 | B10 | binds
48 | B11 | binds
49 | B12 | binds
